The supplement of paper PMC10670038
Structures can show the parent of a compound that is named as a salt. ± gives the standard deviation of the averaged measurements. Whole data set: some 2,000 compounds, median “relative cell viability vs DMSO, compound + 0.2 uM CuET” near 1, cut for the lowest 2% near 0.25. This is one part of the list.

test system: TE10; experiment: relative cell viability vs DMSO, compound + 0.2 uM CuET (fraction); TE10 is an esophageal squamous carcinoma line; higher = less cytotoxic; conditions: 2 µM; co-treatment: CuET (bis(diethyldithiocarbamate)copper) 0.2 uM; 48 h
Procedure: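 TE10 ESCC cells (1,000/well, 384-well plates) were treated with Selleck bioactive library compounds at 2 uM combined with 0.2 uM CuET (copper diethyldithiocarbamate) for 48 h. Viability was read by CellTiter-Glo and expressed relative to DMSO wells. Two technical replicates (A, B).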

Compound | relative cell viability
CN1CCN(c2cccc(Nc3nc4c(-c5ccc(S(C)(=O)=O)cc5)cccn4n3)c2)CC1 | 0.887 ± 0.064
CCCCC(=O)O[C@]1(C(=O)CO)[C@@H](C)C[C@H]2[C@@H]3CCC4=CC(=O)C=C[C@]4(C)[C@@]3(F)[C@@H](O)C[C@@]21C [Betamethasone valerate (Betnovate)] | 1.08 ± 0.053
CC(=O)OCC(=O)[C@@]1(O)CC[C@H]2[C@@H]3CCC4=CC(=O)CC[C@]4(C)[C@H]3C(=O)C[C@@]21C [Cortisone acetate] | 1.16 ± 0.061
CC(C)(C)c1cc(C(=O)C(C#N)=NNc2cccc(Cl)c2)no1 | 0.924 ± 0.025
OC[C@@H](O)[C@@H](O)[C@H](O)[C@@H](O)CO [Sorbitol] | 1.136 ± 0.008
O=C1c2c(O)cc(O)cc2OC(c2ccc(O)c(O)c2)C1O (stereo not drawn) [Taxifolin (Dihydroquercetin)] | 1.04 ± 0.022
CN(C)CCCOc1nn(Cc2ccccc2)c2ccccc12 [Benzydamine HCl] | 1.12 ± 0.12
FC(F)(F)c1ccc(/C=C/c2nc(COc3ccc(CCCCn4ccnn4)cc3)co2)cc1 [Mubritinib (TAK 165)] | 1.07 ± 0.087
CC(Oc1cc(-c2cnn(C3CCNCC3)c2)cnc1N)c1c(Cl)ccc(F)c1Cl [(S)-crizotinib] | 1.12 ± 0.028
Cc1cn([C@@H]2C[C@@H](O)[C@H](CO)O2)c(=O)[nH]c1=O [Telbivudine] | 1.02 ± 0.027
O=C(N/N=C/c1ccc([N+](=O)[O-])o1)c1ccc(O)cc1 [Nifuroxazide] | 1.3 ± 0.017
Cc1cc(NC(=O)c2cccc(NC(=O)/C=C/CN(C)C)c2)ccc1Nc1nccc(-c2cccnc2)n1 | 0.782 ± 0.13
Cc1cccc(Nc2cc(Cl)nc(SCC(=O)O)n2)c1C | 1.2 ± 0.019
O=C(NC(NC(=S)Nc1ccc(F)c([N+](=O)[O-])c1)C(Cl)(Cl)Cl)C(c1ccccc1)c1ccccc1 (stereo not drawn) | 0.726 ± 0.0092
OCc1ccc(O[C@@H]2O[C@H](CO)[C@@H](O)[C@H](O)[C@H]2O)cc1 [Gastrodin] | 1.08 ± 0.029
Cn1cc(C2=C(c3ccc(Cl)cc3Cl)C(=O)NC2=O)c2ccccc21 | 1.22 ± 0.013
CCc1cc(C(N)=S)ccn1 [Ethionamide] | 1.13 ± 0.2
CCc1c2c(nc3ccc(OC(=O)N4CCC(N5CCCCC5)CC4)cc13)-c1cc3c(c(=O)n1C2)COC(=O)[C@]3(O)CC [Irinotecan HCl Trihydrate] | 1.063 ± 0.0017
CCc1c2c(nc3ccc(OC(=O)N4CCC(N5CCCCC5)CC4)cc13)-c1cc3c(c(=O)n1C2)COC(=O)[C@]3(O)CC [Irinotecan] | 1.06 ± 0.028
OC[C@H]1O[C@@H](OCCc2ccc(O)cc2)[C@H](O)[C@@H](O)[C@@H]1O [Salidroside] | 1.09 ± 0.11
C[C@H]1[C@H](NC(=O)/C(=N\OC(C)(C)C(=O)O)c2csc(N)n2)C(=O)N1S(=O)(=O)O [Aztreonam] | 1.04 ± 0.024
COC(=O)c1ccc2c(c1)[nH]c1ncnc(NCCCN3CCCCC3)c12 | 0.91861 ± 0.0008
CCOC(=O)NCCCC(=O)NCCc1ccccc1 | 1.18 ± 0.12
CCC[C@H](NC(=O)/C(C#N)=C/c1cccc(Br)n1)c1ccccc1 [Degrasyn (WP1130)] | 0.4245 ± 0.00065
COc1cc2c(cc1NS(=O)(=O)c1ccc(Br)cc1C)n(C)c(=O)n2C | 1.17 ± 0.15

Compound | relative cell viability
COc1cc(NC(=O)c2ccc(-c3ccc(Cl)cc3)o2)cc(OC)c1 | 0.906 ± 0.036
CCOC(=O)CCC(=O)O[C@H]1[C@H](O[C@@H]2[C@@H](C)[C@H](O[C@H]3C[C@@](C)(OC)[C@@H](O)[C@H](C)O3)[C@@H](C)C(=O)O[C@H](CC)[C@@](C)(O)[C@H](O)[C@@H](C)C(=O)[C@H](C)C[C@@]2(C)O)O[C@H](C)C[C@@H]1N(C)C [Erythromycin Ethylsuccinate] | 1 ± 0.1
C[C@]12C=CC(=O)C=C1CC[C@@H]1[C@@H]2C(=O)C[C@@]2(C)[C@H]1CC[C@]2(O)C(=O)CO [Prednisone] | 1.04 ± 0.13
COC(=O)CC[C@H](NC(=O)[C@H](CC(=O)OC)NC(=O)OCc1ccccc1)C(=O)N[C@H](C(=O)N[C@@H](CC(=O)OC)C(=O)CF)C(C)C | 1.19 ± 0.033
CC1(C)[C@@H](O[C@H]2O[C@H](C(=O)O)[C@@H](O)[C@H](O)[C@H]2O[C@@H]2O[C@H](C(=O)O)[C@@H](O)[C@H](O)[C@H]2O)CC[C@]2(C)[C@H]3C(=O)C=C4[C@@H]5C[C@@](C)(C(=O)O)CC[C@]5(C)CC[C@@]4(C)[C@]3(C)CC[C@@H]12 [Ammonium Glycyrrhizinate] | 1.26 ± 0.14
COc1cc2nccc(Oc3ccc(NC(=O)Nc4ccc(F)cc4F)c(F)c3)c2cc1OC | 0.942 ± 0.039
CNC(=C[N+](=O)[O-])NCCSCc1csc(CN(C)C)n1 [Nizatidine] | 1.26 ± 0.16
CCC1=C[C@@H]2CN(C1)Cc1c([nH]c3ccccc13)[C@@](C(=O)OC)(c1cc3c(cc1OC)N(C)[C@H]1[C@@](O)(C(=O)OC)[C@H](OC(C)=O)[C@]4(CC)C=CCN5CC[C@]31[C@@H]54)C2 [Vinorelbine Tartrate] | 0.683 ± 0.014
CC(C)CN(C[C@@H](O)[C@H](Cc1ccccc1)NC(=O)O[C@H]1CCOC1)S(=O)(=O)c1ccc(N)cc1 [Amprenavir] | 1.02 ± 0.031
C=CC(=O)Nc1cccc(Nc2nc(Nc3ccc(NC4CN(CCF)C4)cc3OC)ncc2C(F)(F)F)c1 | 0.817 ± 0.025
CS(=O)(=O)Nc1ccc([N+](=O)[O-])cc1Oc1ccccc1 [Nimesulide] | 1.08 ± 0.044
CCOC(=O)c1ccc(N2NC(=O)C(=Cc3ccc([N+](=O)[O-])o3)C2=O)cc1 | 0.916 ± 0.037
CCn1cc(C(=O)O)c(=O)c2cc(F)c(N3CCN(C)CC3)cc21 [Pefloxacin Mesylate] | 1.17 ± 0.002
CCn1cc(C(=O)O)c(=O)c2cc(F)c(N3CCN(C)CC3)cc21 [Pefloxacin Mesylate Dihydrate] | 1.18 ± 0.079
CCNC(=O)c1noc(-c2cc(Cl)c(O)cc2O)c1-c1ccc(OC)cc1 | 0.636 ± 0.028
C[C@@H]1CN(c2c(F)c(N)c3c(=O)c(C(=O)O)cn(C4CC4)c3c2F)C[C@H](C)N1 [Sparfloxacin] | 1.11 ± 0.013
O=C(O)P(=O)(O)O [Foscarnet Sodium] | 1.12 ± 0.14
CC(C)(C)NS(=O)(=O)c1cncc(-c2cc(F)c3nc(N)nn3c2)c1 | 1.17 ± 0.012
CCN(CC)CCCC(C)Nc1c2ccc(Cl)cc2nc2ccc(OC)cc12 (stereo not drawn) [Quinacrine 2HCl] | 0.891 ± 0.044
Cc1[nH]c(/C=C2\C(=O)Nc3ccccc32)c(C)c1CCC(=O)O [TSU-68 (SU6668, Orantinib)] | 1.19 ± 0.14
CC(=O)N1CCN(c2ccc(OCC3COC(Cn4ccnc4)(c4ccc(Cl)cc4Cl)O3)cc2)CC1 (stereo not drawn) [Ketoconazole] | 1.06 ± 0.073
CN(CCOc1ccc(NS(C)(=O)=O)cc1)CCc1ccc(NS(C)(=O)=O)cc1 [Dofetilide] | 1.15 ± 0.036
CC(C)NCC(O)c1ccc(NS(C)(=O)=O)cc1 (stereo not drawn) [Sotalol] | 1.116 ± 0.0046
C#C[C@]1(O)CC[C@H]2[C@@H]3CCc4cc(OC)ccc4[C@H]3CC[C@@]21C [Mestranol] | 1.03 ± 0.13
C1=N/C2=N/c3ccc(OCCN4CCCC4)c(c3)COC/C=C/COCc3cccc(c3)C(=C1)N2 [Pacritinib (SB1518)] | 0.645 ± 0.03

Compound | relative cell viability
COc1cc(C=O)ccc1O [Vanillin] | 1.29 ± 0.042
COc1ccc2cccc(CCNC(C)=O)c2c1 [Agomelatine] | 0.93 ± 0.19
CO[C@H]1C[C@@H]2CC[C@@H](C)[C@@](O)(O2)C(=O)C(=O)N2CCCC[C@H]2C(=O)O[C@H]([C@H](C)C[C@@H]2CC[C@@H](O)[C@H](OC)C2)CC(=O)[C@H](C)/C=C(\C)[C@@H](O)[C@@H](OC)C(=O)[C@H](C)C[C@H](C)/C=C/C=C/C=C/1C [Rapamycin (Sirolimus)] | 1.03 ± 0.21
N[C@@H]1CCCN(c2c(/C=C3\SC(=O)NC3=O)cccc2-c2ccccc2)C1 | 1.12 ± 0.024
Oc1ccc(Nc2nc(-c3ccc(Cl)cc3)cs2)cc1 | 1.05 ± 0.0032
N#Cc1ccc2[nH]c(O)c(-c3ccc(CN4CCOCC4)cn3)c2c1 | 1.4 ± 0.13
COc1cc2ncnc(Nc3ccc(Cl)cc3F)c2cc1OC | 1.078 ± 0.0047
N#C[C@@H]1CCCN1C(=O)CNC12CC3CC(CC(O)(C3)C1)C2 [Vildagliptin (LAF-237)] | 1.14 ± 0.24
CCN(CC)CCN(Cc1ccc(-c2ccc(C(F)(F)F)cc2)cc1)C(=O)Cn1c(SCc2ccc(F)cc2)nc(=O)c2c1CCC2 | 0.44 ± 0.095
CC(C)C[C@H](NC(=O)CNC(=O)c1cc(Cl)ccc1Cl)B(O)O | 0.799 ± 0.013
O=S(=O)(NCCNCC=Cc1ccc(Br)cc1)c1cccc2cnccc12 | 1.12 ± 0.058
CNC[C@H](O)c1cccc(O)c1 [Phenylephrine HCl] | 1.12 ± 0.083
CCn1cc(-c2ccnc3[nH]c(-c4cccc(CN(C)C)c4)cc23)c(-c2ccc(NC(=O)N(C)C)cc2)n1 | 1.14 ± 0.33
CCOc1ccn(-c2ccc(F)cc2)c(=O)c1C(=O)Nc1ccc(Oc2ccnc(N)c2Cl)c(F)c1 | 1.06 ± 0.021
Cc1nc(Nc2n[nH]c3c2CN(C(=O)N[C@H](CN(C)C)c2ccccc2)C3(C)C)c2sccc2n1 | 0.5266 ± 0.0033
CSc1cccc(Nc2ncc3cc(-c4c(Cl)cccc4Cl)c(=O)n(C)c3n2)c1 | 0.739 ± 0.014
OCc1ccc(-c2ccc(-c3ccc(CO)s3)o2)s1 | 0.225 ± 0.01
O=c1c(-c2ccc(O)cc2)coc2cc(O)cc(O)c12 [Genistein] | 1.1 ± 0.12
Cc1cc(N2CCOCC2)ccc1Nc1nc(NC2CCCCC2)c2[nH]cnc2n1 | 1.14 ± 0.29
O=C(O)c1ccc(Nc2ncc3c(n2)-c2ccc(Cl)cc2C(c2c(F)cccc2F)=NC3)cc1 | 1.19 ± 0.096
COc1cc2c(cc1OC)-c1cc3ccc(OC)c(OC)c3c[n+]1CC2 [Palmatine chloride] | 1.05 ± 0.12
CNC(=C[N+](=O)[O-])NCCSCc1ccc(CN(C)C)o1 [Ranitidine] | 0.985 ± 0.014
C=CCc1ccc(O)c(-c2ccc(O)c(CC=C)c2)c1 [Honokiol] | 0.92 ± 0.13
